Measured values published in patent US20250177546A1, “ROR1-TARGETED BINDING MOLECULE AND USE THEREOF” (SANYOU BIOPHARMACEUTICALS CO., LTD., priority 2022, published 2025).

B1: B62: chimeric anti-ROR1 antibody, murine clone B62 variable regions with human IgG1/kappa constant regions; CDRs SEQ ID NO 1-3, 28-30 (antibody)
heavy: DVKLVESGGGLVQPGGSLKLSCAASGFTFSSYVMSWVRQTPDKRLELVATINSNGGNTYYPDSVKGRFTISRDNAKNTLYLQMSSLKSEDTAMYYCARDSLGLRRRDYAMDYWGQGTSVTVSS[human IgG1 constant region not listed]
light: DIVLTQSPASLSMAIGEKVTIRCVTSIDIDDDVNWYQQKPGKPPKLLISAGNTLRPGVPSRFSSSGYGTDFVFTIENMLSEDVADYYCLQSDNLPYTFGGGTKLEIKRTVAAPSVFIFPPSDEQLKSGTASVVCLLNNFYPREAKVQWKVDNALQSGNSQESVTEQDSKDSTYSLSSTLTLSKADYEKHKVYACEVTHQGLSSPVTKSFNRGEC
B2: B31: chimeric anti-ROR1 antibody, murine clone B31 variable regions with human IgG1/kappa; CDRs SEQ ID NO 4-6, 31-33 (antibody)
heavy: EVMLVESGGGLVKPGGSLKLSCAASGFTFSRYAMSWVRQTPEKRLEWVASISRGGSTYYPDSVKGRFTISRDNARNILYLQMSSLRSEDTAMYYCASYFGNYDAMDYWGQGTSVTVSS[human IgG1 constant region not listed]
light: DIQMNQSPSSMYASLGERVTITCKASQDINNYVSWFQQKPGKSPKTLIYRANRLVDGVPSRFSGSGSGQDYSFTISSLEYEDMGIYYCLQFDEFPYTFGGGTKLEIKRTVAAPSVFIFPPSDEQLKSGTASVVCLLNNFYPREAKVQWKVDNALQSGNSQESVTEQDSKDSTYSLSSTLTLSKADYEKHKVYACEVTHQGLSSPVTKSFNRGEC
B3: B62-H3L3: humanized anti-ROR1 antibody derived from murine antibody B62; CDRs SEQ ID NO 1-3, 28-30 (antibody)
heavy: EVQLVESGGGLVQPGGSLRLSCAASGFTFSSYVMSWVRQAPGKGLEYVATINSNGGNTYYADSVKGRFTISRDNSKNTLYLQMGSLRAEDTAMYYCARDSLGLRRRDYAMDYWGQGTTVTVSS[human IgG1 constant region not listed]
light: DIQMTQSPSSLSASVGDRVTITCVTSIDIDDDVNWYQQKPGKAPKLLISAGNTLRPGVPSRFSGSGSGTDFTFTISSLQPEDIATYYCLQSDNLPYTFGGGTKLEIKRTVAAPSVFIFPPSDEQLKSGTASVVCLLNNFYPREAKVQWKVDNALQSGNSQESVTEQDSKDSTYSLSSTLTLSKADYEKHKVYACEVTHQGLSSPVTKSFNRGEC

Tests used:
[1] = target: T1, antigen protein huROR1-His (Homo sapiens, UniProt Q01973); assay: Affinity kinetics (Biacore); format: binding; conditions: immobilised huROR1-His, 1:1 Langmuir model
T1 construct: huROR1 ECD AA30-406 (Uniprot ID: Q01973); made in house; host or cells: HEK293 (transient transfection, pcDNA3.4)
T1 sequence (Q01973 30-406): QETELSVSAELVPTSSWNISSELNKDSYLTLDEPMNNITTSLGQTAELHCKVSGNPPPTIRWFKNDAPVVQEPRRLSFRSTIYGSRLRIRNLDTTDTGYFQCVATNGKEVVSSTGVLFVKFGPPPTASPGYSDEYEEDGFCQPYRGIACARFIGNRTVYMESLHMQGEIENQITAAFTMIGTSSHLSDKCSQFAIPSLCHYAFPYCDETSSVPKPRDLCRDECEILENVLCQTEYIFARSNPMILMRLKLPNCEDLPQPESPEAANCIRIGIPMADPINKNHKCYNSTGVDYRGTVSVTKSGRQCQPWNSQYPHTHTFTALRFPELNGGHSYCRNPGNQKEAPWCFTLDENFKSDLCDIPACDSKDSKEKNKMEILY

[2] = target: T1, antigen protein huROR1-His; assay: Affinity kinetics (Gator); format: binding
[3] = target: T2, mouse ROR1 antigen protein MusROR1-His (Mus musculus, UniProt Q9Z139); assay: ELISA cross-reactivity between species (MusROR1-His); format: binding
T2 construct: MusROR1 ECD AA30-406 (Uniprot ID: Q9Z139); made in house; host or cells: HEK293 (transient transfection, pcDNA3.4)
T2 sequence (Q9Z139 30-406): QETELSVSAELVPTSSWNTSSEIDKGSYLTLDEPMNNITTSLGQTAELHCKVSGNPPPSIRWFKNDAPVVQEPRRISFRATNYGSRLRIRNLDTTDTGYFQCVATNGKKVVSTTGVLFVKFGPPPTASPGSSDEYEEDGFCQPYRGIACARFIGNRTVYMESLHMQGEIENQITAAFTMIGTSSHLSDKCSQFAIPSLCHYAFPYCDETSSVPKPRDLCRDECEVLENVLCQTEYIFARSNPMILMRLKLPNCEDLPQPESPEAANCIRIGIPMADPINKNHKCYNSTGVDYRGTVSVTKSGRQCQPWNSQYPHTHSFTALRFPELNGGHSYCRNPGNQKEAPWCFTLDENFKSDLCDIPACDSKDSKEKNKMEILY

[4] = target: T3, human ROR2 antigen protein huROR2-His (Homo sapiens, UniProt Q01974); assay: ELISA cross-reactivity between homologous groups (huROR2-His); format: binding
T3 construct: huROR2 ECD AA34-403 (Uniprot ID: Q01974); made in house; host or cells: HEK293 (transient transfection, pcDNA3.4)
T3 sequence (Q01974 34-403): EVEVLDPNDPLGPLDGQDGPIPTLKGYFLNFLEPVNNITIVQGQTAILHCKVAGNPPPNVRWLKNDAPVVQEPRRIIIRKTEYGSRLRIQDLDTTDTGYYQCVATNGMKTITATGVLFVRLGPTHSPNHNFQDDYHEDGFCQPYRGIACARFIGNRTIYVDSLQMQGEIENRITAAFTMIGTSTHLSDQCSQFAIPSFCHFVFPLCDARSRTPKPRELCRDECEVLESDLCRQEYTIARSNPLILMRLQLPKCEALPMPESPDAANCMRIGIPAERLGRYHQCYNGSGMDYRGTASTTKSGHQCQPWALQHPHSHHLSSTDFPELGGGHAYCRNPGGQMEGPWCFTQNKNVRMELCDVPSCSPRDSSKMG

huROR1-HEK293 cells = assay: Antibody internalization by Fab-Zap method (MTS readout); format: cell-based, human; conditions: 48 h, relative to control antibody 99961.1
[5] = target: T4, human ROR1 on HT-29 tumor cells (Homo sapiens, UniProt Q01973); assay: FACS binding to HT-29 tumor cells; conditions: relative to corresponding positive controls (99961.1, 99961.1-MMAE)
T4 construct: endogenous in cells; host or cells: HT-29 (human colon cancer)
T4 sequence (Q01973 30-937): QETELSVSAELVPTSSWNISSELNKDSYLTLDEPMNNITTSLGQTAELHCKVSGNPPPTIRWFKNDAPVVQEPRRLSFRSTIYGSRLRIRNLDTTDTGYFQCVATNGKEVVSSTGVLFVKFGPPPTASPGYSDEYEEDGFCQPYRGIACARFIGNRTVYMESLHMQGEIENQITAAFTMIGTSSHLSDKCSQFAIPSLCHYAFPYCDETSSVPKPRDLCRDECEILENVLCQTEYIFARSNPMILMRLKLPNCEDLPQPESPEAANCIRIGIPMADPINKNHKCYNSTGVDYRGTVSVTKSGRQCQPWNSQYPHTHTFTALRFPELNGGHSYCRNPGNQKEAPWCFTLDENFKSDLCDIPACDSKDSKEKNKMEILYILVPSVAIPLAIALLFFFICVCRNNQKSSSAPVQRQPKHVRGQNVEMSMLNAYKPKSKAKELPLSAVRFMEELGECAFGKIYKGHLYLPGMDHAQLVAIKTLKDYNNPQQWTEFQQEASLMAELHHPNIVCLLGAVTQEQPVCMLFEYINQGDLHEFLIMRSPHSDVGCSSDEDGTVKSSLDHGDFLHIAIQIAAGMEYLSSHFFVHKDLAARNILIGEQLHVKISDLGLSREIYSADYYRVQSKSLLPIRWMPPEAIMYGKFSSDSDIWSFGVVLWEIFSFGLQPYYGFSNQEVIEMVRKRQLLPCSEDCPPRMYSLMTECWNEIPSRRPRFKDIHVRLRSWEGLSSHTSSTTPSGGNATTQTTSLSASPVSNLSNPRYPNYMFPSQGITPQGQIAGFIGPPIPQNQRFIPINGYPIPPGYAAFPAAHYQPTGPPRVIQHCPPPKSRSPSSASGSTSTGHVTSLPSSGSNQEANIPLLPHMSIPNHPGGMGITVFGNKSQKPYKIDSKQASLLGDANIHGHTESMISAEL

[6] = target: T5, human ROR1 on A549 tumor cells (Homo sapiens, UniProt Q01973); assay: FACS binding to A549 tumor cells; conditions: in words, relative to control 99961.1 (ADC: 99961.1-MMAE)
T5 construct: endogenous in cells; host or cells: A549 (human non-small cell lung cancer)
T5 sequence (Q01973 30-937): as above

Molecule | ka [1] [M⁻¹ s⁻¹] | kd [1] [s⁻¹] | Ka [2] [M⁻¹ s⁻¹] | Kd [2] [s⁻¹] | Rmax (nm) [2] [nm] | MusROR1-His [3] | huROR2-His [4] | internalization effect/rate (Fab-Zap) (huROR1-HEK293 cells) | binding activity to HT-29 cells [5] | binding activity/affinity to A549 tumor cells [6]
B1 | 1.21e+06 | 7.74e-05 | 379000 | 0.000373 | 1.400 | bind to the antigen protein MusROR1-His; also recorded: binding | no binding |  |  | 
B2 | 653000 | 0.000817 | 383000 | 0.00217 | 0.723 | no binding | no binding |  |  | 
B3 |  |  |  |  |  |  |  | comparable to that of the control antibody 99961.1 | slightly superior to those of the corresponding positive controls | superior to those of the corresponding positive controls

“Also recorded” adds a separate entry of the source.
